This is an account of results in patent publication US20240190987A1, “Engineered EpCam Binding Antibodies” (TigaTX, priority 2021, published 2024).

For orientation: Kd means the concentration at which binding is half-saturated. A higher Kd goes with weaker binding.

One assay deals with Ab1073. Kind of assay: kinetics.
The target of assay [1] is cyEpCAM ECD Ag0066 (cyno). Kind of assay: SPR single-cycle.
For assay [2], the target named is T1, huEpCAM ECD Ag0065 (human) (UniProt P16422).
T1 sequence: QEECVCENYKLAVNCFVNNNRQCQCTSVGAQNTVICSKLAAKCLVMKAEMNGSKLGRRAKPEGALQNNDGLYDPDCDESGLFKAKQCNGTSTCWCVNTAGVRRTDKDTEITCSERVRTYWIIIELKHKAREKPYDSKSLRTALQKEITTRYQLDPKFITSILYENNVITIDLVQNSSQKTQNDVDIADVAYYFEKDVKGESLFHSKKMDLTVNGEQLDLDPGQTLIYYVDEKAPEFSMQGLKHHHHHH
The assay can be described thus: SPR single-cycle.

Changes are numbered by the printed parent chain.

B1: Ab1102 (bispecific antibody)
scFv-Fc: QVQLVQSGAEVKKPGASVKVSCKASGYTFTSYWMHWVRQHPGQGLEWMGMIHPNSGGTNYAQKFQGRVTMTRDTSTSTVYMELSSLRSEDTAVYYCAMGDYVSADYWGQGTLVTVSSGGGGSGGGGSGGGGSEIVLTQSPGTLSLSPGERATLSCRASSSVSSSYLHWYQQKPGQAPRLLIYSTSSRATGIPDRFSGSGSGTDFTLTISRLEPEDFAVYYCQQYSGYQFTFGQGTKLEIKGGGGS[human IgG1 Fc with changes left out]
light: DIQMTQSPSSLSASVGDRVTITCSASSSVSSGNFHWYQQKPGKAPKLLIYRTSNLASGVPSRFSGSGSGTDYTLTISSLQPEDFATYYCQQWSGYPYTFGQGTKVEIKRTVAAPSVFIFPPSDEQLKSGTASVVCLLNNFYPREAKVQWKVDNALQSGNSQESVTEQDSKDSTYSLSSTLTLSKADYEKHKVYACEVTHQGLSSPVTKSFNRGEC
heavy: EVQLVESGGGLVQPGGSLRLSCAASGFTFSNYWMNWVRQAPGKGLEWVAQIRVKSENFATHYADSVKGRFTISRDDSKSTVYLQMNSLRAEDTAVYYCTLYDGFSWGQGTLVTVSSASTKGPSVFPLAPSSKSTSGGTAALGCLVKDYFPEPVTVSWNSGALTSGVHTFPAVLQSSGLYSLSSVVTVPSSSLGTQTYICNVNHKPSNTKVDKKV[human IgG1 Fc with changes left out]
As to B1, the Kd with Ab1073 was determined as 20 nM.

B2: Ab0843 (antibody)
heavy: EVQLVESGGGLVQPGGSLRLSCAASGFTFSNYWMNWVRQAPGKGLEWVAQIRVKSENFATHYADSVKGRFTISRDNSKNTLYLQMNSLRAEDTAVYYCTLYDGFSWGQGTLVTVSSASTKGPSVFPLAPSSKSTSGGTAALGCLVKDYFPEPVTVSWNSGALTSGVHTFPAVLQSSGLYSLSSVVTVPSSSLGTQTYICNVNHKPSNTKVDKKV[human IgG1 Fc with changes left out]
light: B1 light with I2N, L48W
For the molecule B2, the Kd in assay [1] was 8.7 nM; in assay [2], 9.9 nM.

B3: Ab0837 (antibody)
heavy: EVQLVESGGGLVQPGGSLRLSCAASGFTFSNYWMNWVRQAPGKGLEWVAQIRVKSENFATHYADSVKGRFTISRDNSKNTLYLQMNSLRAEDTAVYYCTLYDGFSWGQGTLVTVSSASTKGPSVFPLAPSSKSTSGGTAALGCLVKDYFPEPVTVSWNSGALTSGVHTFPAVLQSSGLYSLSSVVTVPSSSLGTQTYICNVNHKPSNTKVDKKV[human IgG1 Fc with changes left out]
light: B1 light with L48W
With B3, the Kd in assay [1] amounted to 7.5 nM; in assay [2], 6.6 nM.
